{"source": "PubChem BioAssay (Tox21)", "note": "This list was built around the results that the source calls inconclusive (neither active nor inactive); the mix of calls is not that of the screen. For some of these results: No potency is given beside an inconclusive call; the fits are too rough. Activity calls are given as the source filed them. Calls come from the whole dose curve; as a rule, active = well fitted curve in the direction sought with a large enough effect in the repeat runs; inconclusive = weak or mixed curves; inactive = no such curve, though single readings can be large; an effect the other way counts as inactive or inconclusive. Tags give direction and shape of the fitted curve. Throughout, for Cytotoxicity: nearly all actives have a fitted effect of over 45% in size. Throughout, for potency: nearly all actives have a fitted effect of over 45% in size. Throughout, for potency: potency is the fitted concentration of half-maximal effect.", "data": [{"assay": "A CellTox Green Cytotoxicity Assay to monitor cytotoxicity in HepG2 cells - 16 hour (AID 1224876); note: nearly all actives have a fitted effect of over 45% in size; note: potency is the fitted concentration of half-maximal effect", "conditions": "CellTox Green fluorescence; series mostly up to 76.8 µM", "in_short": "(§1)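 HepG2 cells were seeded together with the CellTox Green dye at 600 cells/well, left 5 h at 37 C/5% CO2, then given compounds in DMSO. Fluorescence from dye bound to dead-cell DNA was read repeatedly over 40 h of treatment at 37 C.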", "values": [{"compound": "CC(C)(C)c1cc(Cc2cc(C(C)(C)C)c(O)c(C(C)(C)C)c2)cc(C(C)(C)C)c1O", "Potency": "inconclusive [activator, full curve, poor fit]"}, {"compound": "C[Si]1(C)O[Si](C)(C)O[Si](C)(C)O[Si](C)(C)O[Si](C)(C)O1", "Potency": "inactive"}, {"compound": "COc1ncnc(NS(=O)(=O)c2ccc(N)cc2)c1OC", "Potency": "inconclusive [activator, single point]"}, {"compound": "COc1ccc(C(=O)c2ccccc2)c(O)c1", "Potency": "inconclusive [activator, partial curve, poor fit]"}, {"compound": "NCCCC(O)(P(=O)(O)O)P(=O)(O)O", "Potency": "inconclusive [activator, single point]"}]}, {"assay": "qHTS RealTime-Glo MT Cell Viability Assay in HepG2 cells - 32 hour (AID 1224877)", "conditions": "RealTime-Glo luminescence; series mostly up to 76.8 µM", "in_short": "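Compound treatment began 5 h after plating HepG2 cells (600/well) with NanoLuc luciferase and prosubstrate. Plates stayed at 37 C for 40 h; luminescence was captured at six time points, 0 h through 40 h.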", "values": [{"compound": "Cc1ccc(Cl)c(Nc2ccccc2C(=O)O)c1Cl", "Potency": "inactive"}, {"compound": "CC1OCCC1=O", "note": "(stereo not given)", "Potency": "inactive"}, {"compound": "CNC(C)=O", "Potency": "inactive"}, {"compound": "CCOC(=O)/C=C/C(=O)OCC", "Potency": "inactive"}]}, {"assay": "A CellTox Green Cytotoxicity Assay to monitor cytotoxicity in HepG2 cells - 24 hour (AID 1224878)", "conditions": "CellTox Green fluorescence; series mostly up to 76.8 µM", "in_short": "as §1", "values": [{"compound": "CN(C)C(=O)Oc1ccc[n+](C)c1", "Potency": "inactive"}, {"compound": "CC1CCCC(=O)C1=O", "note": "(stereo not given)", "Potency": "inconclusive [activator, full curve, poor fit]"}, {"compound": "CC(C)(C)c1cc(Cc2cc(C(C)(C)C)c(O)c(C(C)(C)C)c2)cc(C(C)(C)C)c1O", "Potency": "inconclusive [activator, single point]"}, {"compound": "CCCCCCCC(=O)OC", "Potency": "inconclusive [activator, partial curve, poor fit]"}, {"compound": "O=C1c2c(O)cccc2Cc2cccc(O)c21", "Potency": "inactive"}, {"compound": "COc1ncnc(NS(=O)(=O)c2ccc(N)cc2)c1OC", "Potency": "inconclusive [activator, single point]"}, {"compound": "CC(=O)CCC(=O)O", "Potency": "inconclusive [activator, single point]"}, {"compound": "CCCCC(CC)CN", "note": "(stereo not given)", "Potency": "inactive"}, {"compound": "CCCCC(CC)COC(=O)COc1cc(Cl)c(Cl)cc1Cl", "note": "(stereo not given)", "Potency": "inactive"}, {"compound": "COc1ccc(C(=O)c2ccccc2)c(O)c1", "Potency": "inconclusive [activator, partial curve]"}, {"compound": "Cc1cc(NS(=O)(=O)c2ccc(N)cc2)no1", "Potency": "inactive"}, {"compound": "CC(CCc1ccc2c(c1)OCO2)NN", "note": "(stereo not given)", "Potency": "inactive"}, {"compound": "Cc1ccc(C(C)C)c(O)c1", "Potency": "inconclusive [activator, single point]"}, {"compound": "C/C=C/c1ccc(O)c(OC)c1", "Potency": "inactive"}, {"compound": "CC(COC(=O)c1ccccc1)OC(=O)c1ccccc1", "note": "(stereo not given)", "Potency": "inactive"}, {"compound": "O=C(/C=C/c1ccccc1)OCc1ccccc1", "Potency": "inactive"}]}]}
